Laboratory results: patent US20250296996A1, “ANGIOPOIETIN-RELATED PROTEIN 7-SPECIFIC ANTIBODIES AND USES THEREOF” (Broadwing Bio, Inc., priority 2022, published 2025)

T1: mouse ANGPTL7 protein (muANGPTL7-his, R&D Systems) (Mus musculus, UniProt Q8R1Q3)
T1 construct: His; purchased R&D Systems
T1 sequence (Q8R1Q3 22-337): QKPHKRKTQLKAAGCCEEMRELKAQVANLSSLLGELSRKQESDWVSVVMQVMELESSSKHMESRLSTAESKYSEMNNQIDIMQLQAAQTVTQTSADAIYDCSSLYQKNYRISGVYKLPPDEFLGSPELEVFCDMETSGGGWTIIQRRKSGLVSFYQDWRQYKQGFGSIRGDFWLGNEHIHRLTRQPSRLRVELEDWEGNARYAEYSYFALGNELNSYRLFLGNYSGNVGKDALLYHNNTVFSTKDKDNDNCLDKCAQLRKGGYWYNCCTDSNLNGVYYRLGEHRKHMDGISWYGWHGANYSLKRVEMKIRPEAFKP

B1: ATX-P-424 (antibody)
heavy: EVQLVESGGGLVKPGGSLRLSCAASGFTFSSYSMNWVRQAPGKGLEWVSSITSSSYIFYADSLKGRFTISRDNAKNSLFLQMNSLRAEDTAVYYCARDSNWGEAFDIWGQGTMVTVSSASTKGPSVFPLAPSSKSTSGGTAALGCLVKDYFPEPVTVSWNSGALTSGVHTFPAVLQSSGLYSLSSVVTVPSSSLGTQTYICNVNHKPSNTKVDKRV[in this place human IgG1 Fc with changes]
light: DIQMTQSPSSLSASVGDRVTITCRASQGIRNDLGWYQQKPGKAPKRLIYAASSLPSGVPSRFSGSGSGTEFTLTISSLQPEDFAIYYCLQHNSYPWTFGQGTKVEIKRTVAAPSVFIFPPSDEQLKSGTASVVCLLNNFYPREAKVQWKVDNALQSGNSQESVTEQDSKDSTYSLSSTLTLSKADYEKHKVYACEVTHQGLSSPVTKSFNRGEC
B2: ATX-P-425 (antibody)
heavy: EVQLVESGGGLVKPGGSLRLSCAASGFTFSTYSMNWVRQAPGKGLEWVSSITSSSSYMFYADSVMGRFTISRDNAKNSLYLQMNSLRAEDTADYYCARDSNWGEAFDIWGQGTMVTVSSASTKGPSVFPLAPSSKSTSGGTAALGCLVKDYFPEPVTVSWNSGALTSGVHTFPAVLQSSGLYSLSSVVTVPSSSLGTQTYICNVNHKPSNTKVDKRV[in this place human IgG1 Fc with changes]
light: B1 light with N31I, Y36F, I85T

Assays:
[1] = Differential scanning fluorimetry (Protein Thermal Shift assay), thermal stability; assay type: physicochemical; settings: DSF, melt 25° C. to 95° C., triplicate; in °C (unit assumed)
Description: Human ANGPTL7 monoclonal antibody differential scanning fluorimetry (DSF). […] Among the many techniques used to study the stability of mAbs, differential scanning fluorimetry (DSF) offers both excellent throughput and minimal material consumption. DSF measures the temperature of the protein unfolding transition (Tm) based on the change in fluorescence intensity of an environmentally sensitive dye.
Experiments were conducted to assess the thermal stability of the human ANGPTL7 monoclonal antibodies (“ATX” antibodies) of the present disclosure by determining the melting temperature. Thermal stability was assessed via differential scanning fluorimetry (DSF) utilizing the Protein Thermal Shift (PTS) assay from Applied Biosystems. The assay was performed according to the manufacturer's instruction. Briefly, the antibody to be evaluated was prepared in triplicate by mixing with Protein Thermal Shift dye and buffer; a real-time melt experiment from 25° C. to 95° C. was run on QuantStudio 3. Data was analyzed by using Protein Thermal Shift Software and the melting temperature (Tm) was calculated from the melt curve (Table 1).

[2] = target: T1, mouse ANGPTL7 protein (muANGPTL7-his, R&D Systems); experiment: Octet HTX binding kinetics to muANGPTL7-his; settings: muANGPTL7-his @ 200 nM; for KD (M): monovalent KD, 1:1 model
Description: (§1) Experiments were also conducted to determine the reactivity and dissociation constants (KD) of anti-ANGPTL7 antibodies with the mouse ANGPTL7 protein. Binding experiments were performed on Octet HTX (ForteBio) in 1×PBS, pH 7.4, 0.1 mg/mi BSA, 0.05% Sodium Azide, and 0.02% Tween 20. Antibodies at a concentration of 50 nM were loaded on pre-hydrated AHC biosensors for 5 mA. The loaded sensors were dipped into monovalent muANGPTL7-his (R&D Systems) at a concentration of 200 nM for 5 min of association, followed by 10 min of dissociation. Results were analyzed with ForteBio Data Analysis 11.1 and fit to a 1:1 binding model to determine the monovalent KD. Responses (nm) at the end of association were also determined (Table 5).

[3] = tested on: rabbit ANGPTL7 protein (P66, rabbit ANGPTL7-his); experiment: Octet HTX binding kinetics to P66 (rabbit ANGPTL7-his); settings: P66 @ 200 nM
Description: as §1, with “([…])” for “(KD)”, “rabbit” for “mouse”, “Rx PBS,” for “1×PBS,”, “min.” for “mA.”, “P66 (rabbit ANGPTL7-his)” for “muANGPTL7-his (R&D Systems)”, “6).” for “5).”

Molecule	Tm 2 - Mean [1]	Tm D - Mean [1]	KD (M) [2]	kdis(1/8) [3]	Response ([2]; at end of association) [nm]
B1	73.14	62.69	N.B.	2.44E−04 1/8	–
B2	71.94	62.97	P.F./L.R.	9.79E−05 1/8	0.20

Residue numbers refer to the chain shown, from its start.
